Measured values as given in the supplement of paper PMC6135742.
“And” between values parts separate entries of the source, which are not always exact repeats. Equal entries are not always repeated. Structures can show the parent of a compound that is named as a salt. ± gives the standard deviation of the averaged measurements. The full ranking holds about 2,600 compounds; the median of “MBP+ mature oligodendrocyte number relative to DMSO vehicle control” is about -0.34, and the highest 2% start at about 13. The list shows a part of the results.

system: jimpy (Plp1 jimpy) mouse iPSC-derived oligodendrocyte progenitor cells; experiment: MBP+ mature oligodendrocyte number relative to DMSO vehicle control (SDs above negative control mean); higher = more surviving jimpy oligodendrocytes (rescue); conditions: 10 µM; 3 days
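Note: 10 µM single dose with 3-day oligodendrocyte differentiation.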

Compared with `COc1cc(C=O)ccc1O` [Vanillin], `Nc1ccc(O)c(C(=O)O)c1` [Mesalamine] is lower in “MBP+ mature oligodendrocyte number” value: 4.47 for the first, -4.97 for the second.

`C1=N/C2=N/c3ccc(OCCN4CCCC4)c(c3)COC/C=C/COCc3cccc(c3)C(=C1)N2` [Pacritinib (SB1518)] and `Cn1c(=O)c(-c2c(Cl)cccc2Cl)cc2cnc(Nc3ccc(N4CCOCC4)cc3)nc21` cannot be ordered by “MBP+ mature oligodendrocyte number” value: -4.64 for the first, less than -3.85 for the second.

`Cc1[nH]c(/C=C2\C(=O)Nc3ccccc32)c(C)c1CCC(=O)O` [TSU-68 (SU6668, Orantinib)] and `COC(=O)C1=C(C)NC(C)=C(C(=O)OC)C1c1ccccc1[N+](=O)[O-]` [Nifedipine] are within error of each other in “MBP+ mature oligodendrocyte number” value: 0.371 for the first, 1.28 ± 1.1 for the second.

Going from `CN(CCOc1ccc(NS(C)(=O)=O)cc1)CCc1ccc(NS(C)(=O)=O)cc1` [Dofetilide] to `COc1ccc(CN(CCN(C)C)c2ccccn2)cc1` [Pyrilamine maleate], the “MBP+ mature oligodendrocyte number” value falls from 9.42 ± 4.5 to -1.19.

Compared with `CC(=O)N1CCN(c2ccc(OCC3COC(Cn4ccnc4)(c4ccc(Cl)cc4Cl)O3)cc2)CC1` (centres undefined) [Ketoconazole], `COc1cc(N2CCN(C)CC2)ccc1Nc1nccc(-c2cn(C)c3cnccc23)n1` is lower in “MBP+ mature oligodendrocyte number” value: 9.85 ± 9 for the first, -6.27 for the second.

Compared with `CC(C)NC[C@H](O)COc1ccc(CCOCC2CC2)cc1` [Levobetaxolol HCl], `CC(C)Cc1ccc([C@H](C)C(=O)O)cc1` [S(+)-Ibuprofen] is lower in “MBP+ mature oligodendrocyte number” value: 9.7 for the first, -0.363 for the second.

Compared with `CNC(=O)[C@H]1O[C@@H](n2cnc3c(NCc4ccc(N)cc4)ncnc32)[C@H](O)[C@@H]1O`, `Nc1ncn([C@@H]2O[C@H](CO)[C@@H](O)[C@H]2O)c(=O)n1` [5-azacytidine] is lower in “MBP+ mature oligodendrocyte number” value: -0.825 for the first, -1.06 for the second.

First: COc1cc2c(cc1O)CC[C@@H]1[C@@H]2CC[C@]2(C)[C@@H](O)CC[C@@H]12 [2-Methoxyestradiol (2-MeOE2)]
Second: C#C[C@]1(O)CC[C@H]2[C@@H]3CCC4=CC(=O)CC[C@@H]4[C@H]3CC[C@@]21C [Norethindrone]
The “MBP+ mature oligodendrocyte number” value of the first is lower: 1.16 for the first, 6.57 for the second.

Going from `COc1cc2c(cc1O)CC[C@@H]1[C@@H]2CC[C@]2(C)[C@@H](O)CC[C@@H]12` [2-methoxyestradiol] to `C#C[C@]1(OC(C)=O)CC[C@H]2[C@@H]3CCC4=C[C@@H](OC(C)=O)CC[C@@H]4[C@H]3CC[C@@]21C` [Ethynodiol diacetate], the “MBP+ mature oligodendrocyte number” value rises from -1.15 to 6.45.

First: Clc1ccccc1CN1CCc2sccc2C1 [Ticlopidine HCl]
Second: O=C(c1cccc(Cl)c1F)N1CCN(Cc2cccc(Nc3nccs3)n2)CC1
The “MBP+ mature oligodendrocyte number” value of the first is higher: 18.4 for the first, 3.62 for the second.

Compared with `O=C1NC(=O)/C(=C\c2ccc3nccnc3c2)S1`, `O=C1NC(=O)/C(=C/c2ccc(-c3ccc(F)cc3O)o2)S1` is lower in “MBP+ mature oligodendrocyte number” value: -0.833 for the first, -3.65 ± 1.8 for the second.

First: CN(C)CCCN1c2ccccc2CCc2ccc(Cl)cc21 [Clomipramine HCl]
Second: Clc1ccc2c(c1)N=C(N1CCNCC1)c1ccccc1N2 [N-Desmethylclozapine]
The “MBP+ mature oligodendrocyte number” value of the first is lower: -4.64 for the first, -4 for the second.

First: CN(C)CCCN1c2ccccc2CCc2ccc(Cl)cc21 [Clomipramine hydrochloride]
Second: Cc1cncc(CN2CCC(=C3c4ccc(Cl)cc4CCc4cccnc43)CC2)c1 [Rupatadine Fumarate]
The “MBP+ mature oligodendrocyte number” value of the first is higher: -3.26 for the first, less than -6.01 for the second.

Compared with `COC(=O)N1CCN(Cc2cccc(NC(=O)Nc3ccc(C)nc3)c2F)CC1`, `Cc1ccc(C(=O)Nc2ccc(CN3CCN(C)CC3)c(C(F)(F)F)c2)cc1C#Cc1cnc2cccnn12` is lower in “MBP+ mature oligodendrocyte number” value: 2.49 for the first, less than -5.15 for the second.

Compared with `CC(C)[C@H](C(=O)Nc1ccc(C(=O)NO)cc1)c1ccccc1`, `O=C(O)Cc1ccccc1Nc1c(Cl)cccc1Cl` [Diclofenac Sodium] is higher in “MBP+ mature oligodendrocyte number” value: less than -4.81 for the first, -0.647 for the second.

Going from `Nc1ccc(S(=O)(=O)Nc2ncccn2)cc1` [Sulfadiazine] to `CS(=O)(=O)c1ccc([C@@H](O)[C@@H](CO)NC(=O)C(Cl)Cl)cc1` [Thiamphenicol], the “MBP+ mature oligodendrocyte number” value falls from 3.13 to 2.41.

Compared with `C=CCc1cc(OC)c(O)c(C(=O)NCCO)c1` [Alibendol], `COc1cc2c(CCNC(C)=O)c[nH]c2cc1O` [6-Hydroxymelatonin] is higher in “MBP+ mature oligodendrocyte number” value: -2.09 for the first, 0.555 for the second.

First: Cc1ccccc1/C=C/C1=NCCN1 [Metrazoline oxalate]
Second: CCCNC(C)C(=O)Nc1ccccc1C (centres undefined) [Prilocaine]
The “MBP+ mature oligodendrocyte number” value of the first is lower: -0.755 for the first, 0.343 for the second.

First: NC1(c2ccc(-c3nc4ccn5c(=O)[nH]nc5c4cc3-c3ccccc3)cc2)CCC1
Second: O=C(Nc1cccc2c(=O)cc(-c3nnn[nH]3)oc12)c1ccc(OCCCCc2ccccc2)cc1 [Pranlukast]
The “MBP+ mature oligodendrocyte number” value of the first is lower: -6.52 for the first, -1.1 for the second.

Compared with `COc1ccc(CCN(C)CCc2ccc(OC)c(OC)c2)cc1OC` [YS-035 hydrochloride], `COc1ccc(CCN(C)CCCC(C#N)(c2cc(OC)c(OC)c(OC)c2)C(C)C)cc1OC` (racemic) [(±)-Methoxyverapamil hydrochloride] is lower in “MBP+ mature oligodendrocyte number” value: -0.0327 for the first, -1.77 for the second.

Going from `CC[N+](CC)(CC)CC` [Tetraethylammonium chloride] to `C[N+](C)(C)CCO.[Br-]` [Choline bromide], the “MBP+ mature oligodendrocyte number” value falls from 1.57 to -0.983.

Going from `NC(=O)c1noc([C@H](CCCC2CCCCC2)CC(=O)NO)n1` to `CC(C)[C@H]1C(=O)N[C@@H](CCCNC(=N)N)C(=O)NCC(=O)N[C@@H](CC(=O)O)C(=O)N[C@H](Cc2ccccc2)C(=O)N1C` [Cilengitide], the “MBP+ mature oligodendrocyte number” value rises from -0.108 to 0.153.

Compared with `CC(C)CCN1c2nc(Nc3cc(F)c(O)c(F)c3)ncc2N(C)C(=O)C1C` (centres undefined), `C[C@@H](c1ncncc1F)[C@](O)(Cn1cncn1)c1ccc(F)cc1F` [Voriconazole] is higher in “MBP+ mature oligodendrocyte number” value: less than -6.01 for the first, 1.56 ± 3.4 for the second.

First: Cc1cnc(Nc2ccc(N3CCN(C)CC3)cc2)nc1Nc1cccc(S(=O)(=O)NC(C)(C)C)c1
Second: CNC(=O)c1ccc2cc([C@@]3(O)CCn4cncc43)ccc2c1 [TAK-700 (Orteronel)]
The “MBP+ mature oligodendrocyte number” value of the first is lower: -5.93 for the first, 0.371 for the second.

Compared with `OC[C@@H](O)[C@@H](O)CO` [Erythritol], `NC(CCCP(=O)(O)O)C(=O)O` (racemic) [(±)-2-Amino-5-phosphonopentanoic acid] is lower in “MBP+ mature oligodendrocyte number” value: -0.0158 for the first, -0.747 for the second.

`CC(=O)Oc1cc(C(F)(F)F)ccc1C(=O)O` [Triflusal] and `FC(F)(F)c1ccccc1-n1ccnc1` [1-[2-(Trifluoromethyl)phenyl]imidazole] are within error of each other in “MBP+ mature oligodendrocyte number” value: -0.242 ± 1.3 for the first, -0.176 for the second.

Going from `N=c1ccn2c(n1)O[C@H]1[C@H](O)[C@@H](CO)O[C@H]12` [Cyclocytidine HCl] to `Nc1ncn([C@@H]2O[C@H](CO)[C@@H](O)[C@H]2O)c(=O)n1` [Azacitidine], the “MBP+ mature oligodendrocyte number” value rises from -1.01 to 0.613.

Going from `N=c1ccn2c(n1)O[C@H]1[C@H](O)[C@@H](CO)O[C@H]12` [Ancitabine hydrochloride] to `C[C@]12C=CC(=O)C=C1CC[C@@H]1[C@@H]2[C@@H](O)C[C@@]2(C)[C@H]1CC[C@]2(O)C(=O)CO` [Prednisolone], the “MBP+ mature oligodendrocyte number” value rises from -1.69 to 7.54.

Compared with `CCCCCCCC/C=C\CCCCCCCC(=O)NCc1ccc(O)c(OC)c1` [Olvanil], `COC1=C(OC)C(=O)C(CCCCCCCCCCO)=C(C)C1=O` [Idebenone] is higher in “MBP+ mature oligodendrocyte number” value: -3.62 for the first, 11 for the second.

Compared with `O=c1[nH]cc(F)c(=O)[nH]1` [5-Fluorouracil], `Fc1ccc(C(OCCCc2cnc[nH]2)c2ccc(F)cc2)cc1` is higher in “MBP+ mature oligodendrocyte number” value: less than -4.47 for the first, 0.696 for the second.

Compared with `O=c1[nH]cc(F)c(=O)[nH]1` [Fluorouracil (5-Fluoracil, 5-FU)], `C[C@@H]1CC(=O)NN=C1c1ccc(NN=C(C#N)C#N)cc1` [Levosimendan] is higher in “MBP+ mature oligodendrocyte number” value: less than -6.7 for the first, -0.332 for the second.

First: O=c1ncn2nc(Sc3ccc(F)cc3F)ccc2c1-c1c(Cl)cccc1Cl
Second: CC(=O)Nc1cccc2c1c(Sc1ccc(Cl)cc1)c(C)n2CC(=O)O
The “MBP+ mature oligodendrocyte number” value of the first is lower: 3.08 for the first, 4.29 for the second.

Compared with `O=C(O)Cc1ccccc1Nc1c(Cl)cccc1Cl` [Diclofenac Potassium], `CCOC(=O)[C@H](CCc1ccccc1)N[C@H]1CCc2ccccc2N(CC(=O)O)C1=O` [Benazepril HCl] is higher in “MBP+ mature oligodendrocyte number” value: 1.69 for the first, 2.12 for the second.

First: O=C(O)Cc1ccccc1Nc1c(Cl)cccc1Cl [Diclofenac Diethylamine]
Second: C=CCN1CCc2cc(O)c(O)cc2C(c2ccccc2)C1 (racemic)
The “MBP+ mature oligodendrocyte number” value of the first is higher: 0.501 for the first, -0.854 for the second.

First: O=C(O)Cc1ccccc1Nc1c(Cl)cccc1Cl [Diclofenac sodium]
Second: c1ccc2c(c1)CCC[C@H]2Nc1nc2ccccc2[nH]1 [NS8593 hydrochloride]
The “MBP+ mature oligodendrocyte number” value of the first is lower: -0.701 for the first, -0.125 for the second.

Going from `NCCOc1cc(C(=O)Nc2cc(OCCN)c3ccccc3n2)nc(C(=O)Nc2cc(OCCN)c3ccccc3n2)c1` [Pyridostatin trifluoroacetate salt] to `CC(COc1ccccc1)N(CCCl)Cc1ccccc1` (centres undefined) [Phenoxybenzamine HCl], the “MBP+ mature oligodendrocyte number” value rises from -3.78 to 4.26.

Going from `CO/N=C(\C(=O)N[C@@H]1C(=O)N2C(C(=O)O)=C(CSc3nc(=O)c(O)nn3C)CS[C@H]12)c1csc(N)n1` [Ceftriaxone sodium] to `O=C(Nc1c[nH]nc1-c1nc2ccc(CN3CCOCC3)cc2[nH]1)NC1CC1`, the “MBP+ mature oligodendrocyte number” value falls from 0.0385 to less than -6.7.

Compared with `Oc1ccccc1O` [Pyrocatechol], `NCC(O)c1ccc(O)c(O)c1` (racemic) [(±)-Norepinephrine (+)bitartrate] is higher in “MBP+ mature oligodendrocyte number” value: less than -3.34 for the first, -0.394 for the second.

Going from `COc1cc(OC)c2c(=O)[nH]c(-c3cc(C)c(OCCO)c(C)c3)nc2c1` to `Cc1cc2nc(NCCCO)n(CC(=O)c3cc(C(C)(C)C)c(O)c(C(C)(C)C)c3)c2cc1C`, the “MBP+ mature oligodendrocyte number” value falls from 3.45 to -4.

Going from `COc1cccc(NC(=O)/C=C/c2ccc(Cl)cc2)c1` to `CCCNC(C)C(=O)Nc1ccccc1C` (centres undefined) [Prilocaine hydrochloride], the “MBP+ mature oligodendrocyte number” value rises from less than -3.85 to -0.176.

Going from `CC(C)(C)NC[C@H](O)COc1nsnc1N1CCOCC1` [S(-)-Timolol maleate] to `O=C1CCC(c2ccc(-n3ccnc3)cc2)=NN1` [Imazodan], the “MBP+ mature oligodendrocyte number” value rises from -0.176 to 0.607.

With `CC(C)(C)NC[C@H](O)COc1nsnc1N1CCOCC1` [Timolol Maleate] the “MBP+ mature oligodendrocyte number” value was -1.45.

For `Cc1cccc(-c2[nH]c(C(C)(C)C)nc2-c2ccc3nccnc3c2)n1`, the “MBP+ mature oligodendrocyte number” value was -3.91 and -3.66.
